Screen size: about 390,000 compounds; about 2,200 (0.56%) were called active. Inconclusive results, whose numbers are uncertain, are shown with a selection of clear calls. The call rests on the fitted dose curve; in most records, active means well fitted inhibition curve with a large enough effect; inconclusive means small, poorly fitted or top-dose-only effect; inactive means no such curve, though single readings can be large or run the other way. A potency beside an inconclusive call is a rough fit, not a confirmed value.
biological target: Chromobox protein homolog 1 (Homo sapiens) (UniProt P83916); assay: HTS for Inhibitors of HP1-beta Chromodomain Interactions with Methylated Histone Tails; details: AlphaScreen HP1-beta / biotin-H3K9me3 peptide binding; series mostly up to 114 µM; activity change, negative = inhibition: at the top concentration; further: nearly all actives have a fitted effect of over 70% in size
UniProt P83916, sequence (P83916 whole entry, looked up): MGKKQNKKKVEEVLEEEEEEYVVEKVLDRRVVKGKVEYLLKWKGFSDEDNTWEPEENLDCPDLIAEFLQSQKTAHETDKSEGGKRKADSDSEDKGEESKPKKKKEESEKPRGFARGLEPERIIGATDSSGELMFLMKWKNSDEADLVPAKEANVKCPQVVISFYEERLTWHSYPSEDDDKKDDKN
Summary of the method: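 AlphaScreen: HP1-beta (50 nM) preformed 30 min with biotin-H3(1-18)K9me3 peptide (50 nM) in PBS pH 7.4, 0.01% Tween-20. Compound added for 30 min at RT, then streptavidin donor/nickel chelate acceptor beads (10 ug/mL) for 30 min.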
Potency means the concentration at half of the fitted maximal effect; tags describe the fitted curve by direction and shape.

Row | Compound | Potency | activity change, negative = inhibition
1 | CN(C)CC1CC/C(=C\c2ccc(O)cc2)C1=O (configuration not stated) | inconclusive: 15.8 µM [inhibitor, full curve, poor fit] | –
2 | COc1ccc(-c2cc3ccccc3n2CC(O)CNCCO)cc1 (configuration not stated) | inconclusive: 89.1 µM [inhibitor, single point] | –
3 | CC1=C(O)C(=O)C(C2=C(O)C(=O)C(C)=C(O)C2=O)=C(O)C1=O | inconclusive: 10 µM [inhibitor, full curve, poor fit] | –
4 | CC(=NNC(=S)N1CCCCC1)c1cccc(C)n1 | inconclusive: 14.1 µM [inhibitor, partial curve, poor fit] | –
5 | O=[N+]([O-])c1ccc(SCc2ccco2)cc1N1CCOCC1 | inconclusive: 31.6 µM [inhibitor, partial curve, poor fit] | –
6 | O=C(O)c1ccccc1NN=C1CCCCC1 | – | inactive: 6.76%
7 | COc1ccc(Cc2noc(CN3CCNC(=O)CC3)n2)cc1OC | – | inactive: 12.4%
8 | Cn1cccc1/C=C(\C#N)c1ccccc1 | inconclusive: 35.5 µM [inhibitor, partial curve] | –
9 | CCCCCOC(=O)CSc1nc2sc3c(c2c(=O)n1Cc1ccccc1)CC(C)(C)OC3 | – | inactive: 52.6%
10 | O=C(CSc1nc(-c2ccccc2)[nH]c1-c1ccccc1)Nc1ccc2c(c1)OCO2 | inconclusive: 17.8 µM [inhibitor, single point] | –
11 | COc1cc(CN2CCC(C(=O)NCC(C)(C)CN(C)C)CC2)ccc1OCc1ccccc1 | inconclusive: 14.1 µM [inhibitor, partial curve, poor fit] | –
12 | COc1cc(/C=N/c2oc(-c3ccccc3)cc2C#N)ccc1O | inconclusive: 35.5 µM [inhibitor, partial curve] | –
13 | O=C1C2CC=C(Cl)CC2C(=O)N1CCCCCCN1C(=O)C2CC=C(Cl)CC2C1=O (configuration not stated) | inconclusive: 44.7 µM [inhibitor, partial curve] | –
14 | Cc1sc2c(c1C)c(=O)n(-c1ccccc1)c(=O)n2CC(=O)c1ccc(Cl)cc1 | – | inactive: 23.8%
15 | CCN(CC)c1ccc(NC(=O)CN(C)Cc2cccs2)cc1 | active: 44.7 µM | –
16 | COc1cc(/C=N/NC(=S)NC2CC3CC2C2C=CCC32)ccc1O (configuration not stated) | inconclusive: 44.7 µM [inhibitor, partial curve, poor fit] | –
17 | COc1cccc(/C=N/n2c(-c3n[nH]c4c3CCC4)n[nH]c2=S)c1OC | inconclusive: 39.8 µM [inhibitor, partial curve] | –
18 | COc1cccc(/C=C2/CN(C)CC3=C2OC(N)=C(C#N)C3c2cccc(OC)c2)c1 (configuration not stated) | inconclusive: 25.1 µM [inhibitor, single point] | –
19 | Cc1ccc(S(=O)(=O)Nc2cccc(C(=O)NCC(C)(C)N3CCOCC3)c2)cc1F | – | inactive: 40.5%
20 | COc1ccc(OCC(=O)Nc2nnc(-c3ccco3)s2)cc1 | inconclusive: 89.1 µM [inhibitor, single point] | –
21 | C/C=C/c1ccc(OCCNCc2ccccc2)c(OC)c1 | inconclusive: 56.2 µM [inhibitor, single point] | –
22 | C/C(=N/Nc1nc(-c2ccc(Cl)cc2)cs1)c1cccs1 | inconclusive: 28.2 µM [inhibitor, single point] | –
23 | CCOc1cc(NCc2ccccc2)c2ncn(C(C)C)c2c1 | inconclusive: 35.5 µM [inhibitor, partial curve] | –
24 | CCSc1ncc(Cl)c(C(=O)N(Cc2ccccc2Cl)C2CCS(=O)(=O)C2)n1 (configuration not stated) | – | inactive: 28.6%

Row | Compound | Potency | activity change, negative = inhibition
25 | COc1ccc(S(=O)(=O)Nc2cccc3c2O[C@@H](CN(C)Cc2ccc(C(=O)O)cc2)[C@@H](C)CN([C@H](C)CO)C3=O)cc1 | – | inactive: 40%
26 | COc1ccc(C2=NN(S(C)(=O)=O)C(c3cn(-c4ccccc4)nc3-c3cccs3)C2)cc1 (configuration not stated) | – | inactive: 7.93%
27 | COc1ccc(N=NC2C(=O)N(c3ccccc3)N=C2C)cc1 (configuration not stated) | active: 7.08 µM | –
28 | OC(CN1CCN(Cc2ccccc2)CC1)Cn1c2ccccc2c2ccccc21 (configuration not stated) | inconclusive: 31.6 µM [inhibitor, single point] | –
29 | CNCc1ccccc1Sc1ccc(O)c(O)c1 | inconclusive: 56.2 µM [inhibitor, partial curve, poor fit] | –
30 | O=C(Cc1ccc(NC(=O)N2CCSc3ncccc32)cc1)NCc1ccccc1 | – | inactive: 9.49%
31 | CCn1c(=O)c2c(nc3n2CCN3c2ccccc2)n(C)c1=O | inconclusive: 89.1 µM [inhibitor, single point] | –
32 | C/C(=N/NC(=O)CNC(=O)c1ccncc1)c1ccc(Cl)cc1 | – | inactive: 7.41%
33 | Cc1ccc(-c2nc3ccccn3c2Nc2ccc3c(c2)OCCO3)s1 | inconclusive: 15.8 µM [inhibitor, full curve, poor fit] | –
34 | COc1cc2c(cc1NCc1ccccn1)oc1ccccc12 | inconclusive: 35.5 µM [inhibitor, partial curve] | –
35 | Oc1ccc(N2CCN(Cc3ccc(OCCCN4CCCCC4)cc3)CC2)cc1 | active: 39.8 µM | –
36 | CCCCn1c(Cc2ccccc2)n[nH]c1=S | inconclusive: 28.2 µM [inhibitor, single point] | –
37 | COc1ccc(C(=O)N2CC(=O)Nc3ccc(C)cc3C2c2ccccc2)cc1OC (configuration not stated) | – | inactive: 30.3%
38 | COc1cc(/C=C2\COC/C(=C\c3ccc(O)c(OC)c3)C2=O)ccc1O | inconclusive: 35.5 µM [inhibitor, partial curve] | –
39 | C=C(C)C(=O)Nc1cccc(C2=NOC3(C2)C[C@@H](C(N)=O)N(C(=O)C(=C)C)C3)c1 (some centres not stated) | active: 8.91 µM | –
40 | Cc1ccc(-c2[nH]nc(N)c2N=Nc2ccccc2C)cc1 | inconclusive: 8.91 µM [inhibitor, full curve] | –
41 | Cc1ccccc1NC(=O)CS(=O)(=O)c1cccc2nsnc12 | – | inactive: 16.9% [at 57 µM]
42 | CCOc1ccc(C2C(C(=O)Nc3ccc(OC)cc3)=C(C)Nc3nc(SCc4ccc(Cl)cc4)nn32)cc1 (configuration not stated) | – | inactive: 46.7%
43 | NC(=O)c1cc(S(=O)(=O)NCCCc2ccccc2)cs1 | – | inactive: 15%
44 | Cc1ccc(/C=C/C(=O)N2CC(C)CC(C)C2)o1 (configuration not stated) | inconclusive: 14.1 µM [inhibitor, full curve, poor fit] | –
45 | Cc1ccc(-c2cnc(SCC(=O)N3CCCc4ccccc43)n2C)cc1 | inconclusive: 39.8 µM [inhibitor, partial curve, poor fit] | –
46 | O=C1CCC(C(=O)O)N1 (configuration not stated) | – | inactive: 20.9%
47 | COc1ccc(NCc2cccn2-c2nnc(N3CCC(C)CC3)s2)c(OC)c1 | inconclusive: 31.6 µM [inhibitor, full curve] | –
48 | COc1ccccc1Nc1ncccc1[N+](=O)[O-] | inconclusive: 10 µM [inhibitor, full curve] | –

Row | Compound | Potency | activity change, negative = inhibition
49 | CCN(C(=O)c1cc2c(=O)[nH]c3ccc(C)cc3c2s1)c1ccc(OC)cc1 | – | inactive: -8.16%
50 | Cc1ccc(Cn2c(CCCO)nc3ccccc32)cc1 | – | inactive: 12.2%
51 | CSc1ccc(CN2CCCN(C)CC2)cc1 | inconclusive: 14.1 µM [inhibitor, partial curve, poor fit] | –
52 | CCCCN(CCCNC(=O)c1c(C)cc(=O)oc1C)c1ccccc1 | inconclusive: 25.1 µM [inhibitor, single point] | –
53 | CCOC(=O)c1cc(-c2ccccc2)n(CC(=O)Nc2cc(Cl)c(OC)cc2OC)c1C | – | inactive: 55%
54 | COc1ccc(-n2sc3c(c2=S)-c2cc(OC)ccc2NC3(C)C)cc1 | active: 10 µM | –
55 | OCCN1CCN(C(=S)c2ccc(-c3ccccc3)cc2)CC1 | inconclusive: 6.31 µM [inhibitor, full curve, poor fit] | –
56 | C/C(=N/NC(=O)c1cc(O)c(O)c(O)c1)c1ccc([N+](=O)[O-])cc1 | inconclusive: 15.8 µM [inhibitor, full curve] | –
57 | CCC(=O)c1ccc(OCC(=O)Nc2cc(S(=O)(=O)N3CCCCC3)ccc2N2CCN(CC)CC2)cc1 | – | inactive: -9.03%
58 | O=C(/C=C/c1cccs1)Nc1scc(-c2ccccc2)c1C(=O)O | inconclusive: 14.1 µM [inhibitor, full curve] | –
59 | O=C(CCN1C(=O)/C(=C/c2ccc(Cl)cc2)SC1=S)Nc1cccc(C(=O)O)c1 | – | inactive: -39%
60 | O=[N+]([O-])c1cc2c(cc1/C=N/n1c(-c3ccccn3)n[nH]c1=S)OCO2 | inconclusive: 56.2 µM [inhibitor, partial curve, poor fit] | –
61 | CCOC(=O)c1cnc2ccc(OC(F)(F)F)cc2c1Nc1ccccc1C(=O)O | – | inactive: 7.79%
62 | COc1ccc(-c2nsc(SCC(=O)Nc3cc(C)on3)n2)cc1 | inconclusive: 31.6 µM [inhibitor, partial curve] | –
63 | COc1ccc(Br)cc1CN(C)CC(=O)Nc1cccc(S(N)(=O)=O)c1 | – | inactive: 40.2%
64 | COc1cccc(/C=C/c2nc(C#N)c(N3CCCCCC3)o2)c1 | inconclusive: 11.2 µM [inhibitor, full curve, poor fit] | –
65 | C/C(=N\NC(=S)Nc1cccc(C)c1)c1ccco1 | inconclusive: 15.8 µM [inhibitor, full curve] | –
66 | COc1ccc(NC(=O)COc2cccc3c2OC(C)(C)C3)cc1OC | inconclusive: 25.1 µM [inhibitor, single point] | –
67 | O=C(COc1cccnc1[N+](=O)[O-])Nc1ncc(Cl)cc1Cl | inconclusive: 31.6 µM [inhibitor, partial curve] | –
68 | CCN1CCN(CCCCOc2ccccc2F)CC1 | inconclusive: 15.8 µM [inhibitor, full curve] | –
69 | COc1ccc(-c2c(C#Cc3ccc(N(C)C)cc3)c3ccccc3n2C)cc1 | inconclusive: 39.8 µM [inhibitor, partial curve] | –
70 | CC(C)CN(C(=O)COC(=O)C(C)N1C(=O)c2ccccc2C1=O)c1c(N)n(Cc2ccccc2)c(=O)[nH]c1=O (configuration not stated) | – | inactive: 11.9%
71 | Cc1cn(CC(=O)NCCc2ccccn2)c(=O)[nH]c1=O | – | inactive: 25.9%
72 | COc1cc(/C=C2\CCn3c2nc2cc(C(=O)O)ccc2c3=O)ccc1OC(F)F | inconclusive: 89.1 µM [inhibitor, single point] | –

— PubChem BioAssay AID540317 (National Center for Advancing Translational Sciences (NCATS), 2011)
